Laboratory results reported in PubChem BioAssay AID493208 (National Center for Advancing Translational Sciences (NCATS), 2011).
The campaign covered roughly 44,000 compounds. About 340 (0.77%) were called active. Another 5% or so got no clear call; they are omitted. Calls come from the whole dose curve; as a rule, active = well fitted inhibition curve with a large enough effect; inconclusive = small, poorly fitted or top-dose-only effect; inactive = flat fitted curve, though single readings scatter. The list shows a part of the results.

experiment: Acumen qHTS Assay for Inhibitors of the mTORC1 Signaling Pathway in MEF (Tsc2-/-, p53-/-) Cells: Sytravon; conditions: phospho-rpS6 immunofluorescence/PI, 24 h; series mostly up to 38.3 µM; activity change, negative = inhibition: at the top concentration;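 note: plate controls were DMSO for no effect and rapamycin for full effect; nearly all actives have a fitted effect of over 50% in size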
Procedure, shortened: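 Readout is phospho-S6 Alexa 488 signal normalized to PI per well, reported as % active cells with thresholds set from rapamycin (7.5 nM) and DMSO controls. Cells: Tsc2-/-, p53-/- MEFs, 24 hrs compound at 37 C; PI cell number serves as viability.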

Activity change, negative = inhibition, inactive:
COc1ccc(S(=O)(=O)N(CCc2ccccc2)CC(=O)Nc2cccc(OC)c2)cc1 19.3%
CCc1ccc(C(=O)COC(=O)C(Cc2c[nH]c3ccccc23)NC(=O)c2ccc(Br)cc2)cc1 (stereo not given) 10.9%
CCOc1ccc(C2c3cc(OCC)c(OCC)cc3CC(=O)N2c2ccc(C(=O)O)cc2)cc1OCC (stereo not given) 3.67%
COc1ccccc1N1CCN(c2ncnc3c2cnn3C)CC1 10.1%
COc1ccc(CCN2C(=O)c3oc4ccc(F)cc4c(=O)c3C2c2ccc(C(C)(C)C)cc2)cc1 (stereo not given) -1.26%
CCc1cccc(C)c1NC(=O)Cn1ccn(-c2ccc(F)cc2)c(=O)c1=O 3.01%
Cc1nc2ccc(S(=O)(=O)N(C)CC(=O)Nc3ccc(Br)c(C)c3)cc2s1 8.1%
Cc1ccccc1-c1nn2c(=O)cc(CN3CCN(C(=O)c4ccc(C(C)(C)C)cc4)CC3)nc2s1 1.53%
CCOC(=O)N1CCc2c(sc3c2c(=O)n(CCc2ccccc2)c(=O)n3Cc2ccc(F)cc2)C1 -16.5%
O=C(CSc1nc(-c2ccccc2)no1)N1CCCCC1 -19.2%
COc1ccc(C(=O)CN2C(=O)N(c3ccc(C(C)=O)cc3)S(=O)(=O)c3ccccc32)cc1 0.265%
Cc1ccc(Cn2nnc(C(=O)Nc3ccc(F)c(F)c3)c2N)cc1 -0.809%
COc1ccc(S(=O)(=O)N2CCC(n3c(C(F)(F)F)nc4cccnc43)CC2)cc1OC 2.11%
CCOc1ccccc1-n1cc2c(c1-c1ccc(OC)cc1)c(=O)n(C)c(=O)n2C 1.89%
Cc1ccc(N(C)C(=O)C2CCN(S(=O)(=O)c3ccc4c(c3)CCCN4C(=O)C3CCC3)CC2)cc1 6.63%
COc1ccc(NC(=O)c2cn(-c3ccccc3)nc2-c2ccc(C)cc2)cc1 10.9%
COC(=O)c1ccc(NC(=O)CN2CCN(c3ccc(Cl)cc3)CC2)cc1 0%
O=C1CC(c2ccccc2)Cc2[nH]c(=O)c(C(=O)Nc3cccc(Cl)c3)cc21 (stereo not given) 4.74%
Cc1c(Cl)cccc1NC(=O)CN1C(=O)COc2ccc(S(=O)(=O)Nc3ccccc3)cc21 -18.7%
CCCOC(=O)CSc1nnc2ccc3ccccc3n12 0.126%
O=C(CSc1nc2ccccc2nc1Cc1ccccc1)Nc1ccc2c(c1)OCO2 6.1%
CCOC(=O)c1cccc(NC(=O)C(C)n2c(C)c3cnn(-c4ccccc4)c(=O)c3c2C)c1 (stereo not given) -6.22%
COc1ccc(NC(=O)c2ccc3c(c2)CCN3S(=O)(=O)c2ccc(C)cc2)cc1Cl 0.404%
Cc1ccc(NC(=O)CN(C)S(=O)(=O)c2ccc3nc(C)sc3c2)c(C)c1 -0.0438%
CC(C)NS(=O)(=O)c1ccc2nc(NC(=O)c3cncc(Br)c3)sc2c1 2.78%
COc1cc(NC(=O)CSc2nc3nc(C)c(Cc4ccc(C)cc4)c(C)n3n2)cc(OC)c1 -11.3%
COc1ccc(Cl)cc1NC(=O)CCc1c(C)nc2c(c1C)c(=O)n(C)c(=O)n2C -0.351%
CCCSCCCNC(=O)c1ccc(Cn2c(=O)c3cccn3c3cccnc32)cc1 -2.18%
Cc1nc(-c2ccccc2)sc1CCNC(=O)c1ccco1 -11%
CCN(C(=O)Cn1ncc2c1-c1cc(C)ccc1OC2)c1cc(Cl)ccc1OC -4.34%
CCc1ccccc1NC(=O)CSc1ncc2c(n1)-c1ccccc1N(Cc1ccc(C)cc1)S2(=O)=O -15.5%
COc1ccccc1CNS(=O)(=O)c1c(C)nc2sccn2c1=O 0.0604%
CCN(Cc1ccccc1)C(=O)CCNS(=O)(=O)c1ccc2c(c1)CC(C)N2C(C)=O (stereo not given) -3.48%
Cc1ccc(S(=O)(=O)c2cn(Cc3ccccc3)c3cc(N4CCCC4)c(F)cc3c2=O)cc1C -12.4%
COc1cccc(CNC(=O)CCc2c(C)c3cc4c(C)c(C)oc4cc3oc2=O)c1 2.61%
CCOC(=O)c1ccccc1NS(=O)(=O)c1c(-c2ccc(C)cc2)csc1C(=O)OC -4.97%
CC(C)(C)C(=O)Nc1ccc2nc(SCC(=O)N3CCCC3)sc2c1 -4.92%
O=C(Nc1ccc(NC(=O)c2cccs2)cc1)c1ccc(Br)cc1 10.2%
O=C(OCc1ccccc1Cl)c1ccc(-c2nnn(Cc3ccccc3)n2)cc1 4.82%
CC(C)Oc1ccc(CNC(=O)c2ccc(NC(=O)c3nsc4ccccc34)cc2)cc1 -1.44%
CCN(CCCNC(=O)c1cc2cc3cc(C)ccc3nc2s1)c1cccc(C)c1 -0.0481%
COc1ccc(/C=C(/C#N)c2nc(-c3ccc(-c4ccccc4)cc3)cs2)cc1 -15.2%
Cc1ccc(C)c(NC(=O)C(=O)NCCc2csc(-c3ccc(C(F)(F)F)cc3)n2)c1 -1.41%
CCOC(=O)Cn1c(=O)cc(-c2ccccc2)c2c(C)nn(C)c21 1.42%
CCC(C)NC(=O)Cn1c(=O)n(-c2ccc(C)cc2)c(=O)c2ccccc21 (stereo not given) -4.65%
CCc1ccccc1N(CC)C(=O)c1cc2c(s1)-c1ccccc1OC2 -5.06%
CCc1ccc(-n2nc(CO)c(C(=O)NCc3ccccn3)n2)cc1 -3.3%
COc1ccc(OC)c(CCNC(=O)c2ccc(CS(=O)Cc3cccc(Cl)c3)o2)c1 (stereo not given) 1.41%
Cc1ccccc1CSc1nc2nc(C)c(Cc3ccccc3)c(C)n2n1 5.38%
Cc1nc(-c2ccccc2)sc1-c1ccc(SCC(=O)Nc2ccc(F)cc2F)nn1 1.52%
Cc1oc2ncnc(N3CCCCC3)c2c1C(=O)NCC1CCN(Cc2ccc(F)cc2)CC1 -4.5%
COc1ccc(-n2ncc(C(=O)N3CCN(c4ccccn4)CC3)c2C2CCN(C(=O)OC(C)(C)C)CC2)cc1 -7.66%
CCC(CC)c1nn2c(=O)cc(COc3ccc(NC(=O)c4ccc(Cl)cc4)cc3)nc2s1 -1.3%
COCCNc1nc(NCc2ccccc2OC)c2cnn(C)c2n1 5.63%
CC(Sc1oc(-c2ccco2)nc1S(=O)(=O)c1ccc(Br)cc1)c1ccccc1 (stereo not given) -16.2%
CCCCNc1nc(Oc2ccc(=O)n(-c3ccccc3)n2)nc(N(C)C)n1 1.51%
CN(C(=O)c1nn(C)c2c1COc1ccccc1-2)c1cccc(C(F)(F)F)c1 0.676%
COc1ccc(N2CCN(CCCNC(=O)c3cnn(-c4ccc(F)cc4)c3-n3cccc3)CC2)cc1 0.895%
CCOC(=O)c1cn(CC(=O)Nc2cccc(Cl)c2C)nn1 -0.641%
COc1ccc(N2CCN(c3nc(-c4ccccc4F)nc4ccccc34)CC2)cc1 -2.93%
O=C(CN(c1cccc(Br)c1)S(=O)(=O)c1ccccc1)N1CCc2ccccc2C1 18.1%
COCCNC(=O)c1c(NC(=O)Cc2coc3cc(C)ccc23)sc2c1CCCC2 1.39%
CCC(C)NC(=O)c1ccc2c(c1)N(Cc1cccc(Cl)c1)C(=O)c1ccccc1S2=O (stereo not given) -0.48%
CCOc1ccccc1NC(=O)C(NS(=O)(=O)c1cccc2nsnc12)c1ccccc1 (stereo not given) -6.59%
Cc1nnc(N2CCN(c3ccccc3F)CC2)c2c1nnn2Cc1ccc(F)cc1 0.208%
COC(=O)c1c(NC(=O)CCCOc2ccc(C)cc2)sc2c1C(C(=O)OC)CC2 (stereo not given) 11%
CCc1cccc(CC)c1NC(=O)c1cc(S(=O)(=O)N2CCc3ccccc32)cn1C -8.78%
Cc1ccc(CN2CCCn3nc(C(=O)NCCN(C)C)cc3C2=O)cc1 0%
COc1ccc(-c2ccc(NS(=O)(=O)c3ccc(F)c(C(F)(F)F)c3)cc2)nn1 -20.4%
CCOC(=O)c1c(C)[nH]c(C)c1S(=O)(=O)N1CCC(C(=O)NCc2ccccc2)CC1 2.4%
Cc1ccc(C)c(OCCSc2nc3ccccc3n2CC(=O)N2CCOCC2)c1 -9.91%
COc1ccc2c(c1)c1c(c(=O)n(Cc3ccccc3)c(=O)n1Cc1cc(C)ccc1C)n2C 2.09%
Cc1nc2ccn(Cc3ccco3)c(=O)c2cc1C(=O)N1CCN(c2ccccc2F)CC1 1.35%
COc1ccc(NC(=O)Cc2coc3cc(C)cc(C)c23)c(OC)c1 0.562%
Cc1nn2c(=O)cc(COC(=O)c3ccccc3NC(=O)c3ccccc3C)nc2s1 0%
COc1cccc(OCc2nc3ccccc3n2CCOc2ccccc2)c1 -14.3%
Cc1ccc(S(=O)(=O)N2CCCC(c3nc4c(nnn4Cc4ccc(OC(F)(F)F)cc4)c(=O)[nH]3)C2)cc1 (stereo not given) 4.07%
Cn1nc(-c2ccc(OCC(=O)Nc3ccccc3)cc2)c2ccccc2c1=O -13.1%
O=C(Cn1c(=O)nc(-c2ccccc2)c2cc(Cl)ccc21)NCc1ccccc1 0%
COCCNC(=O)c1cc2n(n1)CCCN(Cc1ccc(C)cc1)C2=O 26.7%
CC(=O)Cn1nnc2sc(-c3ccccc3)cc2c1=O 1.63%
Cc1c(Cl)cccc1Nc1sc(C(=O)c2ccccc2)c(N)c1S(=O)(=O)c1ccccc1 -0.179%
CN(Cc1ccccc1)C(=O)c1cc2c(=O)n(C)c3ccccc3c2s1 -14.5%
CCOC(=O)N1CCc2c(sc3c2c(=O)n(Cc2ccccc2)c(=O)n3Cc2c(F)cccc2Cl)C1 3.4%
O=C1CC(c2nc3ccccc3n2Cc2c(F)cccc2Cl)CN1c1cccc(C(F)(F)F)c1 (stereo not given) -13.4%
CSc1cccc(N2C(=O)N(Cc3ccc([N+](=O)[O-])cc3)c3ccccc3S2(=O)=O)c1 -4.73%
COc1ccc(NC(=O)CC2C(=O)N(c3ccc(C)cc3)C(=O)N2CCc2ccccc2)cc1 (stereo not given) -2.69%
COc1ccc(CC(=O)Nc2c(C(=O)Nc3ccccc3F)oc3ccccc23)cc1 -13.1%
Cc1ccccc1NC(=O)c1sc2nc(-c3ccncc3)ccc2c1N -5.34%
O=C(CC1C(=O)N(c2ccc(F)cc2)C(=O)N1Cc1cccnc1)Nc1ccc(F)cc1 (stereo not given) -4.84%
CCOC(=O)c1ccc(N2C(=O)c3n[nH]c(-c4cccs4)c3C2c2ccc(C)cc2)cc1 (stereo not given) -11.7%
CCCCOc1cccc(C(=O)Nc2cc3nn(-c4ccc(F)cc4)nc3cc2C)c1 -10.1%
CCCN(CCC)CCCNC(=O)Cn1ncc2c3ccccc3n(Cc3ccc(F)cc3)c2c1=O -5.16%
COCCCNC(=O)CCCn1c(=O)c2cccn2c2cccnc21 -0.415%
Cc1nc(C)c(-c2ccc(SCC(=O)Nc3ccccc3F)nn2)s1 -3.07%
